In all, about 310,000 compounds went through this assay and about 14,000 (4.5%) showed an effect of 50% or more. The effect is printed as a negative number. The list shows a part of the results.
What follows are compounds tested against human ether-à-go-go-related gene (hERG) potassium channel (human, UniProt Q12809) (assay: primary screen, population patch clamp on CHO cells stably expressing hERG).
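Also: peak tail current of the secondary pulse compared with the same well before compound.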

Sequence of human ether-à-go-go-related gene (hERG) potassium channel (Q12809 whole entry, looked up): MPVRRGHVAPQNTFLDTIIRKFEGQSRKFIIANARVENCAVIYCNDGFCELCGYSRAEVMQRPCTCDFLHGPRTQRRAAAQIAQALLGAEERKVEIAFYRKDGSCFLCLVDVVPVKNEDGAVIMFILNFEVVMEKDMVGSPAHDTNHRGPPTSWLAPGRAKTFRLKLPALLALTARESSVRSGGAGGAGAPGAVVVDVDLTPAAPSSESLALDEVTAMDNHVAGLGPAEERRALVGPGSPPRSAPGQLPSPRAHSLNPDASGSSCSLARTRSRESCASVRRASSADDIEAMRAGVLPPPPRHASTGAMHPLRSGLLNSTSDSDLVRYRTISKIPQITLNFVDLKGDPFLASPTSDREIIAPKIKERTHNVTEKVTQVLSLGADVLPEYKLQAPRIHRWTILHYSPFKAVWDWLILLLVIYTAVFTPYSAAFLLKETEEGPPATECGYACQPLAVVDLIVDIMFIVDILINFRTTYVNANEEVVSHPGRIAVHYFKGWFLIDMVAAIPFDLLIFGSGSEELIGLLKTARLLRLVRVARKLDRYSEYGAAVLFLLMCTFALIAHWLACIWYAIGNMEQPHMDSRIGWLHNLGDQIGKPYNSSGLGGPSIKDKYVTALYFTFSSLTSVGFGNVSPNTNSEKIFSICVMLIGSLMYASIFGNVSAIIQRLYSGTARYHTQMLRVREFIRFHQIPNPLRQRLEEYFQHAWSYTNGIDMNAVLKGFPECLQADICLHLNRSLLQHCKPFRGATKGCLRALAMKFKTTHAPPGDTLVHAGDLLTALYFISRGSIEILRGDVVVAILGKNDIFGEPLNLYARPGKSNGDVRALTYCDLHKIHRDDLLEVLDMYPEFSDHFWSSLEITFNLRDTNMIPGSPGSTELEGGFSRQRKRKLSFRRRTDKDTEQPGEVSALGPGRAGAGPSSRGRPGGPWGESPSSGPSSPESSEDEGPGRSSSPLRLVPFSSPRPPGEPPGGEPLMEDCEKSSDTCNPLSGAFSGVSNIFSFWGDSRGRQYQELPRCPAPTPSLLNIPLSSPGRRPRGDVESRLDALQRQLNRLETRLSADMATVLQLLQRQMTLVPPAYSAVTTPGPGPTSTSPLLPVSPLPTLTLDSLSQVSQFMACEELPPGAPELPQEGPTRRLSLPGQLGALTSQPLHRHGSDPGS

In order of falling “hERG current change (%, negative = inhibition) at 10uM” value:
1. O=c1ccc(C(F)(F)F)cn1Cc1cc(=O)n2ccsc2n1  35.4%
2. O=C(O)c1cccc2c1C(=O)N(CC1CCCO1)C2 (stereo not shown)  24.2%
3. CC1=C(C(=O)Nc2ccccc2C)C(c2cccs2)NC(=S)N1 (stereo not shown)  23.2%
4. COc1ccccc1/C=N/NC(=Nc1ccc(C)cc1)c1nc2ccccc2s1  20%
5. CCCCC(=O)NC(c1ccc(C(C)C)cc1)c1ccc2cccnc2c1O (stereo not shown)  20%
6. O=C(O)COc1ccccc1/C=C1\SC(=S)N(NC(=O)c2ccccc2O)C1=O  16.3%
7. CCOC(=O)c1nn(-c2ccc(C)cc2)cc1O  15.3%
8. CC(NC(=O)Nc1ccccc1Cl)c1ccc2c(c1)OCO2 (stereo not shown)  15.3%
9. CN(C)C(=O)c1ccc2c(c1[N+](=O)[O-])C(=O)c1ccccc1C2=O  15.1%
10. CC1(C)Cc2ccccc2C(NNC(=O)c2ccccc2)=N1  14%
11. COc1ccc(NC(=O)c2cccs2)cc1  13.2%
12. O=C1c2ccccc2C(=O)c2c1oc(C(F)(F)F)c2C(=O)c1ccccc1  12.9%
13. CCCOc1ccc(NC(=O)C2CCCNC2=O)cc1 (stereo not shown)  12.5%
14. O=C(NC1CCCCCC1)C1CCN(S(=O)(=O)c2c(Cl)cccc2Cl)CC1  11.6%
15. Cc1ccc(C)c(S(=O)(=O)Nc2ccc(C(=O)N3CCCCC3)cc2)c1  11%
16. O=C(Nc1ccsc1C(=O)O)c1cccc(Oc2ccccc2)c1  10.8%
17. CC(C)(C)NC(=O)C(=O)NC(=O)c1c(F)cccc1Cl  10.3%
18. COC(=O)c1cc(-c2ccc(Cl)cc2)n[nH]1  8.93%
19. CCOC(=O)c1ccc(N2C(=O)C3CC=CCC3C2=O)cc1 (stereo not shown)  8.31%
20. CC(=O)c1cccc(NC(=S)N2CCN(S(=O)(=O)c3ccccc3)CC2)c1  6.6%
21. Cc1nn(-c2ccccc2)c(C)c1CCC(=O)O  6.51%
22. Cc1ccc(N2C(=O)C3CCC(C)(C2=O)C3(C)C)cc1 (stereo not shown)  6.09%
23. Cc1c(Cl)ccc2c(C(=O)NCCCn3nccc3C)cc(-c3ccccn3)nc12  5.11%
24. CCc1ccc(S(=O)(=O)NC2CC(C)(C)NC(C)(C)C2)cc1  5.09%
25. CC(C)n1nnnc1SCC(=O)NNC(=O)C1CCCCC1  4.44%
26. COc1ccc(OCC(=O)OCC(=O)N2C(C)CCCC2C)cc1 (stereo not shown)  4.15%
27. Cc1sc2ncnc(N3CCC(C(=O)N(C)CC(=O)Nc4ccc(Cl)c(C(F)(F)F)c4)CC3)c2c1C  3.47%
28. Cc1cc(Cl)ccc1OCC(=O)Nc1ccccc1NS(=O)(=O)c1cccs1  2.93%
29. CC(=O)C1C(c2ccc(C)cc2)c2c(noc2C)CC1(C)O (stereo not shown)  1.86%
30. CSC1=NCCN1C(=O)c1ccc2c(c1)OCO2  1.2%
31. Cc1cc(N(CCO)CCO)nc(-n2nc(C)cc2C)n1  0.367%
32. CN(C)c1ccc(/C=C(\C#N)C(=O)OCC(=O)N(C)C2CCS(=O)(=O)C2)cc1 (stereo not shown)  0.323%
33. CSc1nc2ccc(NS(=O)(=O)c3ccc(CNC(C)=O)cc3)cc2s1  -0.24%
34. Oc1ccccc1C1Nc2cccc3cccc(c23)N1  -0.719%
35. NNC(=O)Cn1c2ccccc2c2ccccc21  -1.74%
36. COc1cc2cccc(OC)c(=O)c2c(O)c1OC  -1.84%
37. CN=C1C([N+](=O)[O-])=CC=C2C1=NC1(CCCCC1)N2O  -4.59%
38. OCCCc1nc2ccccc2n1CCOc1ccccc1  -5.7%
39. COCCNC(=O)CN(c1ccc(OC)c(OC)c1)S(=O)(=O)c1ccc(C)cc1  -8.68%
40. O=C(Nc1ccc(Cl)cn1)c1cccnc1  -8.71%
41. CCC(C)NC(=O)CN1C(=O)NC2(CCOc3ccccc32)C1=O (stereo not shown)  -9.56%
42. Cc1ccsc1/C=C(/C#N)C(=O)NCc1ccccc1  -10.1%
43. COCCCn1c(SCc2nnc(-c3ccc(OC)c(OC)c3)o2)nc2ccccc2c1=O  -13.5%
44. CSC(=CC(=O)c1ccc(F)cc1)SC  -13.8%
45. Cc1oc(-c2ccccc2Cl)nc1CS(=O)CC(=O)NCCCN1CC(C)CC(C)C1 (stereo not shown)  -15.7%
46. COc1ccc(CNC(=O)CCSCc2ccc(C)cc2)cc1  -16.2%
47. CCC(=O)Nc1ccc2c(c1)nc(CCN1CCN(c3ccccn3)CC1)n2C  -18.3%
48. CCO[C@@H]1OC(C(=O)N2CCN(Cc3ccc4c(c3)OCO4)CC2)=C[C@H](C2CC2)[C@H]1CCCO  -18.7%
49. CC1=C(C(=O)OCC2CCCO2)C(c2ccsc2)C2=C(CC(C)(C)CC2=O)N1 (stereo not shown)  -19.5%
50. O=C(c1cc(-c2ccccc2Cl)nc2ccccc12)N1CCN(c2ccccc2O)CC1  -22.6%
51. Cc1nc2[nH]c(=O)c3c(n2n1)NC1=C(C(=O)CC(C)(C)C1)C3c1ccccc1 (stereo not shown)  -22.7%
52. CC(Nc1ccnc2cc(Cl)ccc12)c1ccc(S(N)(=O)=O)cc1 (stereo not shown)  -26.7%
53. O=C(C1CN(C(=O)c2cc3cc(Cl)ccc3o2)c2ccccc2O1)N1CCCCC1 (stereo not shown)  -29.5%
54. Cc1cccc(Oc2ccc(S(=O)(=O)N3CCCCC3)cc2N)c1  -34.6%
55. COc1cc(C(C)=O)ccc1OCC(O)CN1CCN(c2ccc(C)c(C)c2)CC1 (stereo not shown)  -39.6%
56. CC(C)[N+](C)(C)CC(O)CN(c1ccccc1)c1ccccc1.[I-] (stereo not shown)  -43.6%
57. CC(=O)COC(=O)C1CCN(S(=O)(=O)c2cc([N+](=O)[O-])ccc2Cl)CC1  -51.8%
58. O=C1CC2(CCN(C(=O)c3ccccc3F)CC2)Oc2ccccc21  -73.2%
